From the supplement of paper PMC8007513
Structures can show the parent of a compound that is named as a salt. ± gives the standard error. About 75 (6%) of roughly 1,300 compounds showed an effect of 50% or more. The list shows a part of the results.

Test system: Trichoderma virens ATCC 9645
Assay: growth yield (OD600) relative to untreated control; higher = less growth inhibition
Conditions: compound concentration: 100 uM
Method in brief: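 Trichoderma virens ATCC 9645 spores at 15,000 spores ml^−1 in potato dextrose broth were exposed in 96-well plates to library compounds at 100 μM final, with or without a biocide at 200 ng ml^−1. After growth at 30 °C, OD600 was read at 40 h and 72 h. Values are growth relative to the control without either agent, averaged over duplicate screens.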

| Compound | growth yield (40 h) [%] | growth yield (72 h) [%] |
| --- | --- | --- |
| CN(C)CCN(Cc1cccs1)c1ccccn1 [Methapyrilene hydrochloride] | 97.4 ± 1.1 | 100 ± 2.9 |
| COc1c(O[C@@H]2O[C@H](CO)[C@@H](O)[C@H](O)[C@H]2O)cc2c(c1OC)-c1ccc(SC)c(=O)cc1[C@@H](NC(C)=O)CC2 [Thiocolchicoside] | 101 ± 1.4 | 103 ± 2.2 |
| Clc1ccc(C(Cn2ccnc2)OCc2c(Cl)cccc2Cl)c(Cl)c1 (stereo not drawn) [Isoconazole] | 2.06 ± 1.4 | 1.68 ± 1.1 |
| NC(=O)N1c2ccccc2C=Cc2ccccc21 [Carbamazepine] | 102 ± 1.6 | 99.21 ± 0.42 |
| Nc1nc(F)nc2c1ncn2[C@@H]1O[C@H](CO)[C@@H](O)[C@@H]1O [Fludarabine] | 96.9 ± 4.8 | 95 ± 1.5 |
| CC[C@H]1OC(=O)[C@H](C)[C@@H](O[C@H]2C[C@@](C)(OC)[C@@H](O)[C@H](C)O2)[C@H](C)[C@@H](O[C@@H]2O[C@H](C)C[C@H](N(C)C)[C@H]2O)[C@](C)(O)C[C@@H](C)/C(=N\OCOCCOC)[C@H](C)[C@@H](O)[C@]1(C)O [Roxithromycin] | 97.85 ± 0.64 | 96.7 ± 1.5 |
| CC(=O)N[C@@H](CC(C)C)C(=O)O [N-Acetyl-L-leucine] | 103 ± 3 | 103 ± 2.7 |
| Nc1nc(=O)c2nc(CNc3ccc(C(=O)N[C@@H](CCC(=O)O)C(=O)O)cc3)cnc2[nH]1 [Folic acid] | 102 ± 1.4 | 104.7 ± 0.42 |
| CC(C)C(=O)OCC(=O)[C@@]12O[C@H](C3CCCCC3)O[C@@H]1C[C@H]1[C@@H]3CCC4=CC(=O)C=C[C@]4(C)[C@H]3[C@@H](O)C[C@@]12C [Ciclesonide] | 100 ± 3.3 | 98.48 ± 0.32 |
| O=C1CN2Cc3c(ccc(Cl)c3Cl)N=C2N1 [Anagrelide] | 98.2 ± 7.9 | 96.7 ± 7.3 |
| CC(C)NCC(O)COc1ccc(COCCOC(C)C)cc1 (stereo not drawn) [Bisoprolol fumarate] | 104 ± 2.1 | 104 ± 1.4 |
| Nc1nc(=S)c2ncn([C@@H]3O[C@H](CO)[C@@H](O)[C@H]3O)c2[nH]1 [Thioguanosine] | 86.2 ± 5.6 | 97 ± 1.6 |
| NCCCC[C@H](N[C@@H](CCc1ccccc1)C(=O)O)C(=O)N1CCC[C@H]1C(=O)O [Lisinopril] | 97.53 ± 0.95 | 101 ± 1.3 |
| CC(C)(C)NC[C@H](O)COc1nsnc1N1CCOCC1 [Timolol maleate salt] | 100.7 ± 0.32 | 97.3 ± 2.5 |
| O=C(Nc1cccc2c(=O)cc(-c3nnn[nH]3)oc12)c1ccc(OCCCCc2ccccc2)cc1 [Pranlukast] | 98.5 ± 6 | 95.8 ± 3.7 |
| CCOC(=O)[C@H](CCc1ccccc1)N[C@H]1CCc2ccccc2N(CC(=O)O)C1=O [Benazepril hydrochloride] | 104 ± 3.5 | 105 ± 2.1 |
| COC1=C(OC)C(=O)C(CCCCCCCCCCO)=C(C)C1=O [Idebenone] | 80.7 ± 4.5 | 86.6 ± 3.1 |
| CCOC(=O)OC(C)OC(=O)[C@@H]1N2C(=O)[C@@H](NC(=O)[C@H](N)c3ccccc3)[C@H]2SC1(C)C (stereo partly drawn) [Bacampicillin hydrochloride] | 102 ± 4 | 99.3 ± 6 |
| CC(COc1ccccc1)N(CCCl)Cc1ccccc1 (stereo not drawn) [Phenoxybenzamine hydrochloride] | 104 ± 4.6 | 103 ± 4.2 |
| CCCNC(C)C(=O)Nc1ccccc1C (stereo not drawn) [Prilocaine hydrochloride] | 106.1 ± 0.95 | 105.4 ± 0.73 |
| COc1ccc(CN(CCN(C)C)c2ccccn2)cc1 [Pyrilamine maleate] | 101 ± 1.1 | 103 ± 1.5 |
| CC(=O)c1ccc(S(=O)(=O)NC(=O)NC2CCCCC2)cc1 [Acetohexamide] | 104 ± 4 | 101 ± 3.5 |

| Compound | growth yield (40 h) [%] | growth yield (72 h) [%] |
| --- | --- | --- |
| CCCCC[C@H](O)/C=C/[C@@H]1[C@@H](C/C=C\CCCC(=O)O)[C@@H](O)C[C@H]1O [Dinoprost trometamol] | 101 | 100 |
| CCOC(=O)c1ccc(OC(=O)CCCCCNC(=N)N)cc1 [Gabexate mesilate] | 76.6 ± 4.5 | 76 ± 3.7 |
| CCCN[C@H]1CCc2nc(N)sc2C1 [Pramipexole dihydrochloride] | 103 ± 2.1 | 99.84 ± 0.63 |
| Cc1cc(=O)oc2cc(O)ccc12 [Hymecromone] | 101 ± 0.32 | 97.01 ± 0.94 |
| Cn1c(=O)c2nc[nH]c2n(C)c1=O [Theophylline monohydrate] | 96.1 ± 1.4 | 95.4 ± 1.3 |
| C=C1c2cccc(O)c2C(=O)C2=C(O)[C@]3(O)C(=O)C(C(N)=O)=C(O)[C@@H](N(C)C)[C@@H]3[C@@H](O)[C@H]12 [Methacycline hydrochloride] | 84.7 ± 1.4 | 72.05 ± 0.1 |
| c1ccc(C2CN3CCSC3=N2)cc1 (stereo not drawn) [Tetramisole hydrochloride] | 102 ± 2.7 | 104 ± 1.6 |
| Cc1scc2c1N(C(=O)CN1CCN(C)CC1)c1ccccc1NC2=O [Telenzepine dihydrochloride] | 99.75 ± 0.32 | 103 ± 1.1 |
| Oc1ccc(OCc2ccccc2)cc1 [Monobenzone] | 48.6 ± 0.64 | 53.3 ± 1.7 |
| C[C@H]1C[C@H]2[C@@H]3CCC4=CC(=O)C=C[C@]4(C)[C@@]3(F)[C@@H](O)C[C@]2(C)[C@@]1(O)C(=O)CO [Betamethasone] | 99.75 ± 0.32 | 103 ± 1.5 |
| COC(=O)Nc1nc2ccc(SC(C)C)cc2[nH]1 [Methiazole] | 87 | 112 ± 7.2 |
| Cc1ccc(Cl)c(Nc2ccccc2C(=O)O)c1Cl [Meclofenamic acid sodium salt monohydrate] | 81.64 ± 0.64 | 87.26 ± 0.21 |
| C=C1/C(=C\C=C2/CCC[C@]3(C)[C@@H]([C@H](C)/C=C/[C@@H](O)C4CC4)CC[C@@H]23)C[C@@H](O)C[C@@H]1O [Calcipotriene] | 110 ± 16 | 105 ± 13 |
| O=C(NCCO[N+](=O)[O-])c1cccnc1 [Nicorandil] | 102.9 ± 0.32 | 102 ± 4.2 |
| CCN1CCN(C(=O)N[C@@H](C(=O)N[C@@H]2C(=O)N3C(C(=O)O)=C(CSc4nnnn4C)CS[C@H]23)c2ccc(O)cc2)C(=O)C1=O [Cefoperazone dihydrate] | 101 ± 0.95 | 103 ± 2.2 |
| CN(C)CCOc1ccc(/C(=C(/CCCl)c2ccccc2)c2ccccc2)cc1 [Toremifene] | 3.81 ± 0.32 | 2.73 ± 0.21 |
| CC(C(=O)O)c1ccc(N2Cc3ccccc3C2=O)cc1 (stereo not drawn) [Indoprofen] | 88.3 ± 2.2 | 82.5 ± 1.1 |
| CC1=Nc2ccc(Cl)cc2S(=O)(=O)N1 [Diazoxide] | 107 ± 2.4 | 105 ± 2.9 |
| CCn1nc(C(=O)O)c(=O)c2cc3c(cc21)OCO3 [Cinoxacin] | 94.7 ± 7.3 | 89.8 ± 3.1 |
| Cc1cc(/C=C/c2ccc3cc(N(C)C)ccc3[n+]2C)c(C)n1-c1ccccc1 [Pyrvinium pamoate] | 124 ± 20 | 114 ± 12 |
| COCCOC(=O)C1=C(C)NC(C)=C(C(=O)OC/C=C/c2ccccc2)C1c1cccc([N+](=O)[O-])c1 (stereo not drawn) [Cilnidipine] | 84.3 ± 13 | 86.6 ± 8.2 |
| CCCCNc1ccc(C(=O)OCCOCCOCCOCCOCCOCCOCCOCCOCCOC)cc1 [Benzonatate] | 92.1 ± 2.5 | 89.1 ± 2.1 |

| Compound | growth yield (40 h) [%] | growth yield (72 h) [%] |
| --- | --- | --- |
| O=C(O)/C=C/c1ccc(Cn2ccnc2)cc1 [Ozagrel hydrochloride] | 110 ± 9.5 | 106 ± 5.1 |
| CCCc1nc(C)c2c(=O)nc(-c3cc(S(=O)(=O)N4CCN(CC)CC4)ccc3OCC)[nH]n12 [Vardenafil] | 112 ± 4.6 | 105 ± 3.9 |
| O=C(O)COC(=O)Cc1ccccc1Nc1c(Cl)cccc1Cl [Aceclofenac] | 94.2 ± 2.1 | 95.02 ± 0.42 |
| Cc1cnc(NC(=O)C2=C(O)c3ccccc3S(=O)(=O)N2C)s1 [Meloxicam] | 85.3 ± 4 | 93.55 ± 0.21 |
| Cc1nnc(NS(=O)(=O)c2ccc(N)cc2)s1 [Sulfamethizole] | 100.4 ± 0.32 | 99.74 ± 0.1 |
| CCN1CCC[C@H]1CNC(=O)c1c(OC)ccc(Br)c1OC [Remoxipride Hydrochloride] | 101 ± 1.9 | 101.8 ± 0.94 |
| CCN1CCN(c2cc3c(cc2F)c(=O)c(C(=O)O)cn3C2CC2)CC1 [Enrofloxacin] | 97.5 ± 8.6 | 95.2 ± 7.3 |
| CO/N=C(\C(=O)N[C@@H]1C(=O)N2C(C(=O)O)=C(COC(N)=O)CS[C@H]12)c1ccco1 [Cefuroxime sodium salt] | 96.9 ± 2.9 | 89.9 ± 1.1 |
| O=C(NCC(O)CO)c1c(I)c(C(=O)NCC(O)CO)c(I)c(N(CCO)C(=O)CO)c1I (stereo not drawn) [Ioversol] | 101 ± 5.4 | 98.1 ± 2.8 |
| Nc1ccc(S(=O)(=O)Nc2ccnn2-c2ccccc2)cc1 [Sulfaphenazole] | 94.19 ± 0.79 | 92.29 ± 0.84 |
| CC1Cc2ccccc2N1NC(=O)c1ccc(Cl)c(S(N)(=O)=O)c1 (stereo not drawn) [Indapamide] | 107 ± 1.8 | 105.7 ± 0.42 |
| Cc1cc(CC(=O)O)n(C)c1C(=O)c1ccc(Cl)cc1 [Zomepirac sodium salt] | 93.7 ± 5.7 | 88 ± 3.9 |
| O=C1CC2(CCCC2)CC(=O)N1CCCCN1CCN(c2ncccn2)CC1 [Buspirone hydrochloride] | 104.4 ± 0.16 | 102.2 ± 0.52 |
| CC[C@H]1OC(=O)[C@H](C)[C@@H](O[C@H]2C[C@@](C)(OC)[C@@H](O)[C@H](C)O2)[C@H](C)[C@@H](O[C@@H]2O[C@H](C)C[C@H](N(C)C)[C@H]2O)[C@](C)(O)C[C@@H](C)[C@@H]2N[C@@H](COCCOC)O[C@H]([C@H]2C)[C@]1(C)O [Dirithromycin] | 99.1 ± 2.2 | 99 ± 3.4 |
| C[C@H](O)C(=O)Nc1c(I)c(C(=O)NC(CO)CO)c(I)c(C(=O)NC(CO)CO)c1I [Iopamidol] | 100 ± 5.1 | 97 ± 2.4 |
| CC(C)CC(=O)N[C@H](C(=O)N[C@H](C(=O)N[C@@H](CC(C)C)[C@@H](O)CC(=O)N[C@@H](C)C(=O)N[C@@H](CC(C)C)[C@@H](O)CC(=O)O)C(C)C)C(C)C [Pepstatin A] | 106 ± 5.4 | 102 ± 7.8 |
| Nc1nc2n[nH]nc2c(=O)[nH]1 [Azaguanine-8] | 3.49 ± 0.95 | 2.62 ± 0.1 |
| CN(C)c1nc(N(C)C)nc(N(C)C)n1 [Altretamine] | 97.37 ± 0.79 | 95.02 ± 0.63 |
| CC(C)NCC(O)c1ccc2ccccc2c1 (stereo not drawn) [Pronethalol hydrochloride] | 98.6 ± 2.1 | 99.3 ± 2 |
| C[C@H]1C[C@@H]2[C@H]([C@@H](O)C[C@@]3(C)[C@H]2CC[C@]3(O)C(=O)CO)[C@@]2(C)C=CC(=O)C=C12 [Methylprednisolone, 6-alpha] | 101.3 ± 0.64 | 103.3 ± 0.52 |
